Measured values taken from the supplement of paper PMC4967469.
By IC50 is meant the dose at which the fit gives 50% viability; a limit (>, <) means that the fit lies beyond the doses tested. AUC is the area under the same curve over the 256-fold range up to the top dose, as a fraction; values near 1 show little effect. For part of these data: A top dose marked as inferred was derived from the fitted curves, not read from the paper. For part of these data: An entry number marks a drug with two screens in the source, which often give different values.

How the values were obtained:
Assay in all cases: Viability of human cancer cell lines after 72 h of drug (GDSC screen)
NVP-TAE684 = compound: COc1cc(N2CCC(N3CCN(C)CC3)CC2)ccc1Nc1ncc(Cl)c(Nc2ccccc2S(=O)(=O)C(C)C)n1 [NVP-TAE684]; settings: top dose 2 µM
Protocol: (§1)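 Human cancer cell lines in 384-well plates, medium with 10% serum, drug for 72 h over a 256-fold dose range (nine 2-fold or five 4-fold steps up to the top dose). Adherent lines were fixed and stained with the nucleic acid dye Syto60, suspension lines read with resazurin; signal relative to control wells, capped at 0 and 100%. One two-parameter sigmoid per drug and line, fitted in a mixed model over all curves with the slope shared within a line.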

CGP-60474 = compound: OCCCNc1cc(-c2ccnc(Nc3cccc(Cl)c3)n2)ccn1 [CGP-60474]; settings: top dose 0.256 µM; top dose inferred
Protocol: as §1

Docetaxel = compound: CC(=O)O[C@@]12CO[C@@H]1C[C@H](O)[C@@]1(C)C(=O)[C@H](O)C3=C(C)[C@@H](OC(=O)[C@H](O)[C@@H](NC(=O)OC(C)(C)C)c4ccccc4)C[C@@](O)([C@@H](OC(=O)c4ccccc4)[C@H]21)C3(C)C [Docetaxel]; settings: top dose 0.0125 µM
Protocol: as §1

FTI-277 = compound: COC(=O)[C@H](CCSC)NC(=O)c1ccc(NC[C@@H](N)CS)cc1-c1ccccc1 [FTI-277]; settings: top dose 1.024 µM; top dose inferred
Protocol: as §1

JNK Inhibitor VIII = compound: CCOc1nc(NC(=O)Cc2cc(OC)ccc2OC)cc(N)c1C#N [JNK Inhibitor VIII]; settings: top dose 10 µM; top dose inferred
Protocol: as §1

Belinostat = compound: O=C(/C=C/c1cccc(S(=O)(=O)Nc2ccccc2)c1)NO [Belinostat]; settings: top dose 20 µM; top dose inferred
Protocol: as §1

NSC-207895 = compound: CN1CCN(c2ccc([N+](=O)[O-])c3no[n+]([O-])c23)CC1 [NSC-207895]; settings: top dose 20 µM; top dose inferred
Protocol: as §1

JNJ-26854165 = compound: c1ccc2c(CCNc3ccc(Nc4ccncc4)cc3)c[nH]c2c1 [JNJ-26854165]; settings: top dose 10 µM
Protocol: as §1

OSI-906 = compound: C[C@]1(O)C[C@@H](c2nc(-c3ccc4ccc(-c5ccccc5)nc4c3)c3c(N)nccn32)C1 [OSI-906]; settings: top dose 2.56 µM; top dose inferred
Protocol: as §1

SB-715992 = compound: Cc1ccc(C(=O)N(CCCN)[C@@H](c2nc3cc(Cl)ccc3c(=O)n2Cc2ccccc2)C(C)C)cc1 [SB-715992]; settings: top dose 0.128 µM; top dose inferred
Protocol: as §1

YM155 = compound: COCC[n+]1c2c(n(Cc3cnccn3)c1C)C(=O)c1ccccc1C2=O [YM155]; settings: top dose 5.12 µM
Protocol: as §1

Cyclopamine = compound: CC1=C2C[C@H]3[C@@H](CC=C4C[C@@H](O)CC[C@@]43C)[C@@H]2CC[C@]12O[C@@H]1C[C@H](C)CN[C@H]1[C@H]2C [Cyclopamine]; settings: top dose 16 µM; top dose inferred
Protocol: as §1

AMG-706 = compound: CC1(C)CNc2cc(NC(=O)c3cccnc3NCc3ccncc3)ccc21 [AMG-706]; settings: top dose 2 µM; top dose inferred
Protocol: as §1

JQ1 = compound: Cc1sc2c(c1C)C(c1ccc(Cl)cc1)=N[C@@H](CC(=O)OC(C)(C)C)c1nnc(C)n1-2 [JQ1]
Protocol: as §1

[1] = top dose 1 µM, screen: GDSC drug entry 1218, top dose inferred
[2] = top dose 2.56 µM, screen: GDSC drug entry 163

Cell Line	AUC (NVP-TAE684)	IC50 (NVP-TAE684) [nM]	AUC (CGP-60474)	IC50 (CGP-60474) [nM]	AUC (Docetaxel)	IC50 (Docetaxel) [nM]	AUC (FTI-277)	IC50 (FTI-277) [nM]	AUC (JNK Inhibitor VIII)	IC50 (JNK Inhibitor VIII) [nM]	AUC (Belinostat)	IC50 (Belinostat) [nM]	AUC (NSC-207895)	IC50 (NSC-207895) [nM]	AUC (JNJ-26854165)	IC50 (JNJ-26854165) [nM]	AUC (OSI-906)	IC50 (OSI-906) [nM]	AUC (SB-715992)	IC50 (SB-715992) [nM]	AUC (YM155)	IC50 (YM155) [nM]	AUC (Cyclopamine)	IC50 (Cyclopamine) [nM]	AUC (AMG-706)	IC50 (AMG-706) [nM]	AUC (JQ1; [1])	IC50 (JQ1; [1]) [nM]	AUC (JQ1; [2])	IC50 (JQ1; [2]) [nM]
TE-8 (oesophagus, adherent)	0.702	483	0.586	27.9	0.446	0.549	0.975	> 1020	0.985	> 10000	0.985	> 20000	0.98	> 20000	0.84	7590	0.808	1440	0.969	> 128	0.881	> 5120	0.985	> 16000	0.984	> 2000	0.97	> 1000	0.967	> 2560
TE-12 (oesophagus, suspension)	0.7	522	0.668	52.2	0.916	> 12.5	0.972	> 1020	0.97	> 10000	0.979	> 20000	0.957	> 20000	0.906	> 10000	0.684	590	0.945	> 128	0.429	196	0.963	> 16000	0.975	> 2000	0.98	> 1000	0.857	> 2560
TE-15 (oesophagus, suspension)	0.742	684	0.604	32.1	0.881	> 12.5	0.961	> 1020	0.979	> 10000	0.362	491	0.926	> 20000	0.927	> 10000	0.892	> 2560	0.984	> 128	0.118	< 20	0.985	> 16000	0.982	> 2000	0.972	> 1000	0.617	351
TK10 (kidney, adherent)	0.8	1210	0.685	59.1	0.799	7.48	0.965	> 1020	0.973	> 10000	0.958	> 20000	0.974	> 20000	0.816	7070	0.925	> 2560	0.965	> 128	0.945	> 5120	0.979	> 16000	0.98	> 2000	0.98	> 1000	0.729	836
